# Some of the results follow.
# How the values were obtained:
# Experiment in all cases: glycan array binding signal (z-score within array); higher = stronger binding
# Conditions in all cases: glycan notation: IUPAC condensed, linker removed
# [1] = molecular target: Gal(b1-4)GlcNAc(b1-2)Man(a1-3)[Gal(b1-4)GlcNAc(b1-2)Man(a1-6)]Man(b1-4)GlcNAc(b1-4)[Fuc(a1-6)]GlcNAc
# Procedure, shortened: (§1)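 From the Consortium for Functional Glycomics database, 3228 arrays were curated, keeping only those whose protein sequence was available. Binding is given as a within-array Z-score averaged across arrays sharing a protein sequence and across linkers. Negative Z-scores can be read as non-binding.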
# [2] = molecular target: Gal(b1-4)GlcNAc(b1-2)Man(a1-3)[Gal(b1-4)GlcNAc(b1-2)Man(a1-6)][Gal(b1-4)GlcNAc(b1-4)]Man(b1-4)GlcNAc(b1-4)[Fuc(a1-6)]GlcNAc
# Procedure, shortened: as §1
# [3] = molecular target: Gal(b1-4)GlcNAc(b1-2)Man(a1-3)[Gal(b1-4)GlcNAc(b1-2)Man(a1-6)][GlcNAc(b1-4)]Man(b1-4)GlcNAc(b1-4)[Fuc(a1-6)]GlcNAc
# Procedure, shortened: as §1
# [4] = molecular target: Gal(b1-4)GlcNAc(b1-2)Man(a1-3)[GlcNAc(b1-2)Man(a1-6)]Man(b1-4)GlcNAc(b1-4)GlcNAc
# Procedure, shortened: as §1
# [5] = molecular target: Gal(b1-4)GlcNAc(b1-2)Man(a1-3)[GlcNAc(b1-4)][Gal(b1-4)GlcNAc(b1-2)Man(a1-6)]Man(b1-4)GlcNAc(b1-4)GlcNAc
# Procedure, shortened: as §1
# [6] = molecular target: Gal(b1-4)GlcNAc(b1-2)Man(a1-3)[Man(a1-6)]Man(b1-4)GlcNAc(b1-4)GlcNAc
# Procedure, shortened: as §1
# [7] = molecular target: Gal(b1-4)GlcNAc(b1-2)Man(a1-6)Man(b1-4)GlcNAc(b1-4)GlcNAc
# Procedure, shortened: as §1
# [8] = molecular target: Gal(b1-4)GlcNAc(b1-2)Man(a1-6)[GlcNAc(b1-2)Man(a1-3)]Man(b1-4)GlcNAc(b1-4)GlcNAc
# Procedure, shortened: as §1
# [9] = molecular target: Gal(b1-4)GlcNAc(b1-2)Man(a1-6)[Man(a1-3)]Man(b1-4)GlcNAc(b1-4)GlcNAc
# Procedure, shortened: as §1
# [10] = molecular target: Gal(b1-4)GlcNAc(b1-2)[Gal(b1-4)GlcNAc(b1-4)]Man(a1-3)[Gal(b1-4)GlcNAc(b1-2)Man(a1-6)]Man(b1-4)GlcNAc(b1-4)GlcNAc
# Procedure, shortened: as §1
# [11] = molecular target: Gal(b1-4)GlcNAc(b1-2)[Gal(b1-4)GlcNAc(b1-4)]Man(a1-3)[Gal(b1-4)GlcNAc(b1-2)[Gal(b1-4)GlcNAc(b1-6)]Man(a1-6)]Man(b1-4)GlcNAc(b1-4)GlcNAc
# Procedure, shortened: as §1
# [12] = molecular target: Gal(b1-4)GlcNAc(b1-2)[Gal(b1-4)GlcNAc(b1-4)]Man(a1-3)[GlcNAc(b1-4)][Gal(b1-4)GlcNAc(b1-2)Man(a1-6)]Man(b1-4)GlcNAc(b1-4)GlcNAc
# Procedure, shortened: as §1
# [13] = molecular target: Gal(b1-4)GlcNAc(b1-2)[Gal(b1-4)GlcNAc(b1-4)]Man(a1-3)[GlcNAc(b1-4)][Gal(b1-4)GlcNAc(b1-2)[Gal(b1-4)GlcNAc(b1-6)]Man(a1-6)]Man(b1-4)GlcNAc(b1-4)GlcNAc
# Procedure, shortened: as §1
# [14] = molecular target: Gal(b1-4)GlcNAc(b1-2)[Gal(b1-4)GlcNAc(b1-6)]Man(a1-6)[Gal(b1-4)GlcNAc(b1-2)Man(a1-3)]Man(b1-4)GlcNAc(b1-4)GlcNAc
# Procedure, shortened: as §1
# [15] = molecular target: Gal(b1-4)GlcNAc(b1-2)[Gal(b1-4)GlcNAc(b1-6)]Man(a1-6)[Gal(b1-4)GlcNAc(b1-2)Man(a1-3)]Man(b1-4)GlcNAc(b1-4)[Fuc(a1-6)]GlcNAc
# Procedure, shortened: as §1
# [16] = molecular target: Gal(b1-4)GlcNAc(b1-2)[Gal(b1-4)GlcNAc(b1-6)]Man(a1-6)[GlcNAc(b1-4)][Gal(b1-4)GlcNAc(b1-2)Man(a1-3)]Man(b1-4)GlcNAc(b1-4)GlcNAc
# Procedure, shortened: as §1
# [17] = molecular target: Gal(b1-4)GlcNAc(b1-2)[Gal(b1-4)GlcNAc(b1-6)]Man(a1-6)[GlcNAc(b1-4)][Gal(b1-4)GlcNAc(b1-2)[Gal(b1-4)GlcNAc(b1-4)]Man(a1-3)]Man(b1-4)GlcNAc(b1-4)[Fuc(a1-6)]GlcNAc
# Procedure, shortened: as §1
# [18] = molecular target: Gal(b1-4)GlcNAc(b1-3)Gal(b1-3)GalNAc
# Procedure, shortened: as §1
# [19] = molecular target: Gal(b1-4)GlcNAc(b1-3)Gal(b1-3)GlcNAc
# Procedure, shortened: as §1
binder,measurement,setting,value
PX9961C-bth-497-22-497 (Bacteroides thetaiotaomicron) (protein) DWLDLNTTSSVETGQAIVTLDDAQIALNGIYRLASGHSYYGDNYWYYGDCRAADVQARITKGDGKRVSPYYEYNVLASDNLNIVLPWNTVYKVIRQTNNLIQKIESGSIQSSDTKELNRIKSEALVMRGLSLFNLTRLFGMPYTNDKGASLGVPIETSPSDPTHKPSRSTVAQCYEQVVSDMSNALSGLRQETSNGYINYWAAQALLSRVYLNMGEYQKAYDAATDVIKNNGGRYQLYSYEEYPNVWGQDFQSESLFELYITLSEPSGGTGGEGAPMVYANEATVDWNNLILSEDFLNLLNEDPKDVRHCLTKESVIENNTGLPAAAMHEKVYLAKFPGKTGDDPKTNNICIIRLSEVYLNAAEAGLKKGTDIEEAQGYLNDIISRRTTDTSQQVSTETFTLDRILKERRKELVGEGEVFYDYLRNGLAIERKGSWHLETLKASNAQKIEATDLRIALPIPQSEIDANPNIQQNPR,glycan array binding signal (z-score),[1],0.793
same,glycan array binding signal (z-score),[2],0.185
same,glycan array binding signal (z-score),[3],0.149
same,glycan array binding signal (z-score),[4],0.447
same,glycan array binding signal (z-score),[5],-0.422
same,glycan array binding signal (z-score),[6],0.112
same,glycan array binding signal (z-score),[7],-0.302
same,glycan array binding signal (z-score),[8],-0.308
same,glycan array binding signal (z-score),[9],-0.361
same,glycan array binding signal (z-score),[10],-0.114
same,glycan array binding signal (z-score),[11],-0.304
same,glycan array binding signal (z-score),[12],0.029
same,glycan array binding signal (z-score),[13],-0.035
same,glycan array binding signal (z-score),[14],-0.305
same,glycan array binding signal (z-score),[15],0.036
same,glycan array binding signal (z-score),[16],0.035
same,glycan array binding signal (z-score),[17],0.452
same,glycan array binding signal (z-score),[18],0.472
same,glycan array binding signal (z-score),[19],0.182
